Reference: the supplement of paper PMC11417369
± gives the standard deviation of the averaged measurements. The list shows a part of the results.

tested on: PfAP2-EXP AP2 domain (GST-tagged); experiment: gcPBM binding intensity (ln(normalized median fluorescence intensity)); higher = stronger DNA binding
Procedure, shortened: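 In this array assay, P. falciparum DNA-binding domains with a GST tag, expressed in E. coli, were applied for 1 h to primer-extended double-stranded 36-bp intergenic genomic probes and negative controls on an Agilent 4 × 180k array. Bound protein was visualised with Alexa488 anti-GST antibody at 488 nm. Binding intensity is the highest Masliner-normalised natural-log median intensity across replicate spots of either probe orientation.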

Sequence | gcPBM binding intensity (ln)
AAGAGAAATTATAACATGTGAAATGTATTATATATA [TGCATGCA_negctrl_site254] | 8.43 ± 0.44
ATTTATATATAATATACACACATATAATCCACATAT [CACACA_site699] | 8.54 ± 0.28
TAAGTATAATATTGATGTACATATAATAACTTGTAT [XGTACX_site417] | 8.43 ± 0.33
TATCTCTTATTTTATTGTACTTAACTATGCTATAAT [XGTACX_site4904] | 8.85 ± 0.4
AAAAATAAAAAAATGACACACATATATATATATATA [CACACA_site2307] | 10 ± 0.53
ATTCAAATTGTAGAAACACACAAAAACTTAACATAT [CACACA_site2617] | 8.7 ± 0.44
TAGTTAACAAATAATGCACACAAATGGATAAAATTA [CACACA_site9240] | 8.9 ± 0.28
CATATGATATGTTATACACACACGTATATATGAATT [CACACA_site3446] | 8.54 ± 0.45
AAGGGAAAATTAAGGTTGCACTAAAAATATATCTTT [GTGCAC_site9608] | 8.35 ± 0.33
ATGAACATACAATATACACACATATATATTTATATT [CACACA_site4609] | 8.55 ± 0.52
TACTATAACGCACATACACACAAAAAAAAAAAAAAA [CACACA_site8073] | 8.76 ± 0.23
TATATATATATTTTTGCATGTAATTTTTATGAGGAC [TGCATGCA_site884] | 9.79 ± 0.29
TTATACATGAAATATTGTACACATATATATATATAT [XGTACX_site4378] | 10.1 ± 0.32
ATATGGTGATATAGGTGTACATTTTGATGCTTATTT [XGTACX_site4283] | 8.65 ± 0.47
AATTAGATTATGCACACACACTTAAAAATAATAAAT [CACACA_site7015] | 8.72 ± 0.32
TTTTTTTTTTTCTTAGTGCGCGTGAAAAATATAAAA | 8.43 ± 0.26
TTACTCAAACAAACAAAAAAAAAAAAAAAAAAAAAA [TGCATGCA_negctrl_site457] | 7.88 ± 0.26
ATATATAGAATGTGTACACACATATGTATTTATATA [CACACA_site810] | 8.55 ± 0.14
ATTTTTTATGGACAAAAGACCTCTGATGTAAATATA [CACACA_negctrl_site1081] | 8.3 ± 0.39
GATAAATGTATATATGCATGCACATATATTTATACA [TGCATGCA_site748] | 9.785 ± 0.021
TATTTGTAATATTATACACACATTATATATTACAAA [CACACA_site5804] | 8.54 ± 0.37
TATTTTGTATATAAATGTACAAGTATATATTTTTTC [XGTACX_site7855] | 8.33 ± 0.31

Sequence | gcPBM binding intensity (ln)
ATTTAAATAACGTATGTATATACATATATATATATA [TGCATGCA_negctrl_site207] | 10 ± 0.22
CGTAGCCACACTAACACACACAAATATACACAATCA [CACACA_site7379] | 8.52 ± 0.61
ATATATTATATATATATATATATATATTATTATTGT [TGCATGCA_negctrl_site286] | 8.81 ± 0.2
TATGAATATTTGTATACATGCATATAGAAATCATAT [TGCATGCA_site533] | 8.76 ± 0.36
GCTTTAATCTGAAAGTGTACAGATAATATATTTATA [XGTACX_site2462] | 8.22 ± 0.34
TGCATTATTTACAAGGTGCGTTACAAATGTGTAACA [GTGCAC_site9442] | 8.71 ± 0.18
TTTTTTTTTTTTTTTTTTTTTTTTTCATATTAATAT [GTGCAC_negctrl_site351] | 8.15 ± 0.47
TTGGCATACAGACACACACACACACCCCCACATATA [CACACA_site590] | 9.43 ± 0.61
ATTGATACATCCAATACACACTACATATTATGATGT [CACACA_site6965] | 8.56 ± 0.36
AATTTATTAAAAAAATGTACTTATTTTTTTGTATAA [XGTACX_site5844] | 8.25 ± 0.34
ACATATTGTAGATATTGTACATATTGTGTATATATT [XGTACX_site7620] | 8.31 ± 0.34
AATATGGAATGAAATAACAATCGGGAGTATATTACC [CACACA_negctrl_site93] | 8.9 ± 0.35
TATATATATGTTCTTACACACACGAATATATATATG [CACACA_site3304] | 8.71 ± 0.29
CTTTCTCTCAAAATGACATGCAATTTGTTTCTTTTT [TGCATGCA_site169] | 8.94 ± 0.18
ATGCGTTTAGCAAAAAGTACATATATATATAATATT [XGTACX_site1928] | 8.47 ± 0.35
ATATATATATATATTTGTACTTAATTGATTTTACTT [XGTACX_site2663] | 10.11 ± 0.085
ATTTTTTCTAGACATGCATGTGAAATTTACTTTTTT [TGCATGCA_site305] | 9.35 ± 0.19
TTGAAATACTTTATTTGTACATATAGCAAAGTGTAT [XGTACX_site8782] | 8.48 ± 0.31
ATTATTGATTTATAAACACACACTCGAAGATGTTTA [CACACA_site8294] | 8.4 ± 0.37
TTTTTTTTTTTTTTTACACACTTTATTCAAACAACT [CACACA_site4104] | 8.34 ± 0.54
ATTTTTTTTTAATGCAATATATTTTGAAAATTTTAT [CACACA_negctrl_site753] | 8.54 ± 0.35
TAATATCTTGAGTCATCACACATTGATTAATGAATC [CACACA_site5735] | 8.2 ± 0.38

Sequence | gcPBM binding intensity (ln)
TGAATACAGATATTCACACAAATAGTTTTGATATAT [CACACA_site5527] | 8.14 ± 0.52
AAAAAAATATATAATAGTACATATATAGGAATATAT [XGTACX_site4591] | 8.41 ± 0.34
AGTGGAAATTTTATTTGTACATAAATATTTACATAC [XGTACX_site633] | 8.39 ± 0.27
CTTTTTTTTTTTTTTGCACACACATATATAAATATA [CACACA_site3950] | 8.76 ± 0.41
AGATCATAATATTATACACACATTATATATCTGTAA [CACACA_site4925] | 8.54 ± 0.42
TTTTGAATATATTAAATAAATTAAAAATCTACAAAC [GTGCAC_negctrl_site622] | 8.26 ± 0.36
TAATAAATTCAAAACATAAAAAGGAAAAAAAAAAAA [CACACA_negctrl_site1330] | 8.52 ± 0.47
TTATTATATACAAAATGTACACAGAATAATTTGAAT [XGTACX_site2314] | 8.51 ± 0.31
ATATATATATATATATGTACATAATATATTATATAT [XGTACX_site924] | 10.2 ± 0.33
TTTTTTTTTTTTTTGGTGCAGTTCACATATTATATA [GTGCAC_site9996] | 8.71 ± 0.26
TGTGTAAGCACATACAAACACACAACCTTATTTTTA [CACACA_site2187] | 8.5 ± 0.42
TATATTAACAAAATGGTGCAATAATTTCTATATTGT [GTGCAC_site9430] | 8.65 ± 0.22
TTATTATATTAAAAGAGGACACATTTATTTTTTTTT [XGTACX_site1241] | 8.09 ± 0.53
AAAATATTTAATAGAAGTACACATGTATATATACAT [XGTACX_site8942] | 8.61 ± 0.44
AAAAAAAAAAAAAAAAAAAAAAAAAAAAATAAAAAA [CACACA_negctrl_site59] | 8.84 ± 0.31
TGTATAAAAAGAAAAAATCGTATGTGTTATCAAAAA [GTGCAC_negctrl_site490] | 8.47 ± 0.4
ACGATTCAAAGGGAATATAAAATATTATTATCTATA [CACACA_negctrl_site1739] | 8.14 ± 0.44
AACCAATATGCGTATACACACATAAATATAAATATA [CACACA_site3780] | 8.35 ± 0.22
AATAGAATAATCCTTACACACACACCCACACGAATA [CACACA_site8053] | 8.88 ± 0.54
ATATATTTTTTTTATACATGCAATGCATTTACGTTG [TGCATGCA_site565] | 8.88 ± 0.028
TTTTTTTTTTTTTGAACACACATTATTAATTTTTAT [CACACA_site308] | 8.26 ± 0.54
TTTTTTATATATTAGGAATTTATAAAATTAGAAGGT [GTGCAC_negctrl_site617] | 9.43 ± 0.67

Sequence | gcPBM binding intensity (ln)
GTATTAATTTTAAGGTGTACGCAAAAAATTTAATTT [XGTACX_site718] | 8.53 ± 0.23
AACCAGTTGATGTGTACACATATAGTAATAATTTTA [CACACA_site5564] | 8.78 ± 0.4
TTTCTATTACGAACGTGTACATACATTATTCTTAAA [XGTACX_site5816] | 8.88 ± 0.26
TAGAAAAAAATAGATGCATGCAATGAATGAATAATA [TGCATGCA_site14] | 10.3 ± 0.17
TTTTTGTTAATAAGTATGCACTATCTCATTTTTGTA | 8.64 ± 0.29
ATATATTTTGGGGACTTTTTAAAAAAGAAGTATTAA [TGCATGCA_negctrl_site337] | 8.61 ± 0.42
GAGCATTACACATATACACACATATAAATAAACATA [CACACA_site7315] | 8.57 ± 0.43
CTATACTATGAAAAGTGTACGAATAGCTAGCTATTT [XGTACX_site5927] | 8.49 ± 0.4
TAGTAGTATTCATCCAGTACATATAAATGTATAATA [XGTACX_site7552] | 8.41 ± 0.37
GAGAAATTTATACATACACACATATAAATATTATAG [CACACA_site7819] | 8.36 ± 0.25
CTTTGCATTACGAACATACACACAGAATAACTGAAA [CACACA_site3024] | 8.62 ± 0.54
TTTTAATGAAATATCAAAAAAATTTATGATTTCAAA [GTGCAC_negctrl_site662] | 7.61 ± 0.35
AATAATATATAAGAAAGTACAAAAAAATAAAATAAA [XGTACX_site3302] | 8.85 ± 0.38
AAAAAGAAAAAACTTACACACATATATACACCCATG [CACACA_site8079] | 8.68 ± 0.49
ATATCAAATAGACAAACACACAAAGGAAGAGTGAAA [CACACA_site3921] | 8.96 ± 0.52
TTCTTTTTTTTTTTTTTTTTTTTATAGTACAAAAAA [TGCATGCA_negctrl_site450] | 8.34 ± 0.3
ATCTATATTATTTCTACACACATATCTATAATATGT [CACACA_site7561] | 8.79 ± 0.5
TTTTTTTTTTTGTGTGCATGTGCTAGGAAAGGTAGG [TGCATGCA_site330] | 8.85 ± 0.23
TTGTTCATCTTTTTTTTTTTTTTTTTTTTTTAAATC [CACACA_negctrl_site191] | 8.18 ± 0.62
ATTAATAAAAGATAAAGTACAAATCGGAAAATGAAT [XGTACX_site7846] | 8.88 ± 0.51
TTTCAATGTGACACGTGTCCGTAAAATTACATAATT [XGTACX_site7073] | 8.72 ± 0.42
AAGATTAAACATTGCACACAGAAATATATTTTCTAT [CACACA_site2374] | 8.49 ± 0.36
